# In all, about 360,000 compounds went through this assay and about 6,000 (1.7%) were called active. Inconclusive means that the source gave no clear call. Such entries were picked first, then a sample of the others. Calls come from the whole dose curve; as a rule, active = well fitted cell-killing curve with a large enough effect; inconclusive = small, poorly fitted or top-dose-only effect, or effect the other way; inactive = flat fitted curve, though single readings scatter. Potencies of inconclusive entries are left out as doubtful fits.
# Assay: qHTS for induction of synthetic lethality in tumor cells producing 2HG: qHTS for the HT-1080-NT fibrosarcoma cell line;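 note: NT is the 2HG producing partner of a matched IDH1 knockdown line; nearly all actives have a fitted effect of over 55% in size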;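 for activity, negative = less viability: 0% = DMSO-treated cells and -100% = media-only wells without cells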
# Conditions: HT-1080-NT fibrosarcoma viability, CellTiter-Glo ATP luminescence, 48 h; activity, negative = less viability: at 46.1 µM (top of the series) unless noted
# In short: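 Compounds were tested in concentration-response format on HT-1080-NT cells for 48 hours at 37 degrees C. Cell viability came from CellTiter-Glo luminescence; curves were classified by r2, response magnitude and activity.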
# Potency is the fitted concentration of half-maximal effect; tags give direction and shape of the fitted curve.
SMILES,Potency,"activity, negative = less viability"
CCOc1ccc(C(=O)N2CCN(CC(=O)N3CCCC3)CC2)cc1OCC,inactive,–
COCCn1c(SCC(=O)NCc2ccco2)nnc1-c1c[nH]c2ccccc12,"inconclusive [rising, single point]",–
Cc1nc2c(cc1C(=O)N/N=C/c1ccc(O)c(O)c1)c(=O)n(C)c(=O)n2C,"inconclusive [cytotoxic, single point]",–
Cc1nc(C(=O)NC2CC2)sc1C1(C)CC(c2ccccc2)=NO1 (stereo not drawn),inactive,–
COc1ccc(NC(=O)CCOc2cc(C)ccc2C)cc1S(=O)(=O)N1CCCCC1,inactive,–
Cc1ccc(CCN2CC(C(=O)NCCCN3CCOCC3)CC2=O)cc1 (stereo not drawn),inactive,–
CCc1ccc2[nH]c(=O)c(CN(CCN(C)C)C(=O)Nc3ccccc3OC)cc2c1,"inconclusive [cytotoxic, single point]",–
CSc1ccc(C(=O)C2CCCN(C(=O)CCc3c(C)nn(C)c3C)C2)cc1 (stereo not drawn),active: 13 µM,–
O=C(CC1CCCCC1)N1CCCC(c2nc(-c3ccc(S(=O)(=O)N4CCCC4)cc3)no2)C1 (stereo not drawn),"inconclusive [cytotoxic, single point]",–
Cc1ccc(C(=O)C2CCN(CC(=O)NC3CCCCC3)CC2)cc1,inactive,–
N#Cc1cccc(OCCCN2CCC(C(O)(c3ccccc3)c3ccccc3)CC2)c1,"inconclusive [cytotoxic, single point]",–
COc1ccc(O)c(C(=O)c2cnn(-c3ccccc3)c2)c1,–,inconclusive: -30.4% [cytotoxic]
CSc1nc2ccccc2cc1/C=C(\C#N)c1cccc(Cl)c1,active: 4.61 µM,–
O=C(NCc1ccccc1)C1CCN(S(=O)(=O)c2cc([N+](=O)[O-])ccc2Cl)CC1,inactive,–
CC(C)C[C@H](NC(=O)c1[nH]cnc1C(=O)N[C@@H](C)c1ccccc1)C(=O)OCc1ccccc1,"inconclusive [cytotoxic, single point]",–
CCOC(=O)c1sc(Nc2nc3ccc(OC)cc3s2)cc1C,"inconclusive [cytotoxic, single point]",–
CC(=O)Nc1ccc(S(=O)(=O)Nc2nc3ccccc3nc2Nc2ccc(S(N)(=O)=O)cc2)cc1,"inconclusive [rising, single point]",–
O=CC1=C(N2CCOCC2)/C(=C/c2ccc(Cl)cc2)CC1,inactive,–
COC(=O)c1sc(NC(=O)c2cc(-c3ccccc3)nc3ccccc23)c(C#N)c1C,"inconclusive [cytotoxic, full curve]",–
O/N=C/c1cccc[n+]1CCCCCC[n+]1ccccc1/C=N/O,inactive,–
COc1ccc(-c2n[nH]c(C)c2-c2ccccc2OC)c(O)c1,"inconclusive [cytotoxic, single point]",–
C=CCc1cccc(/C=N/NC(=O)c2ccccc2Br)c1O,"inconclusive [cytotoxic, single point]",–
NC(=O)c1ccsc1NC(=O)c1ccc2c(c1)CCCC2,"inconclusive [cytotoxic, partial curve]",–
COc1ccc(C)cc1S(=O)(=O)N1CCCC(C(=O)NCc2ccccn2)C1 (stereo not drawn),inactive,–
COc1ccccc1N1C(=O)S/C(=C\c2cc(C)n(C)c2C)C1=O,inactive,–

SMILES,Potency,"activity, negative = less viability"
CCOC(=O)c1ccccc1NC(=O)CSc1nccn1C,–,inconclusive: 27.4%
CN(C)[C@@H]1C(=O)C(C(N)=O)=C(O)[C@@]2(O)C(=O)C3=C(O)c4c(O)ccc(Cl)c4[C@@H](O)[C@H]3C[C@@H]12,"inconclusive [cytotoxic, single point]",–
Cc1ccc(S(=O)(=O)C(C)C(=O)c2ccc3c(c2)OCCO3)cc1 (stereo not drawn),"inconclusive [rising, single point]",–
COc1ccc(CCNC(=O)c2cccc(S(=O)(=O)N3CCCCCC3)c2)cc1,"inconclusive [cytotoxic, single point]",–
COC(=O)c1cccc2c(C(=O)O)cc(-c3ccccc3)nc12,inactive,–
COc1ccc(-n2nnnc2S(=O)(=O)CC(=O)N2CCCCC2)cc1,active: 20.6 µM,–
C=CCn1c2ccccc2c2nnc(SCC(=O)O)nc21,inactive,–
O=C(Nc1nc2cc3c(cc2s1)OCCO3)c1ccco1,"inconclusive [cytotoxic, partial curve]",–
S=C(c1ccc(-c2ccc(Cl)cc2)o1)N1CCCCC1,"inconclusive [cytotoxic, single point]",–
CS(=O)(=O)N(CC(=O)NCc1ccc2c(c1)OCO2)Cc1ccccc1,inactive,–
COc1ccc(C2CC(O)(c3ccccc3)Oc3cc(OC)ccc32)cc1 (stereo not drawn),"inconclusive [cytotoxic, single point]",–
Fc1ccc(-c2csc3ncnc(Nc4ccc(N5CCOCC5)cc4)c23)cc1,"inconclusive [cytotoxic, single point]",–
Cc1onc(-c2ccccc2)c1C(=O)N1CCCC1,inactive,–
COCCN=C1N[C@@H](c2ccc(Br)cc2)C(C(=O)OC)=C(C)N1Cc1ccccc1,active: 23.1 µM,–
C=CCn1c(CNc2ccccc2)nnc1SCC(=O)N/N=C/c1ccccc1O,"inconclusive [cytotoxic, single point]",–
CN(C[C@H](Cc1ccccc1)N(C[C@H](Cc1ccccc1)N(CC1(c2ccccc2)CC1)N=O)N=O)N=O,–,inconclusive: -31.8% [cytotoxic]
COc1cc(C(C[N+](=O)[O-])c2c(C)cc3ccccn23)ccc1O (stereo not drawn),"inconclusive [cytotoxic, partial curve]",–
Cc1ccc(CS(=O)(=O)Cc2ccc(C(=O)NCc3ccccn3)o2)cc1,"inconclusive [cytotoxic, single point]",–
Cc1cc(C(c2ccc(O)cc2)c2cc(C)c(O)cc2C)c(C)cc1O,"inconclusive [cytotoxic, single point]",–
Cc1ccc2c(c1)C1CN(C)CCC1N2C(=O)COc1ccc(N(C)S(=O)(=O)c2cccs2)cc1 (stereo not drawn),inactive,–
Cc1c(NC(=O)C(C)OC(=O)c2cccc([N+](=O)[O-])c2)c(=O)n(-c2ccccc2)n1C (stereo not drawn),"inconclusive [rising, partial curve, poor fit]",–
CC(C)(C)NS(=O)(=O)c1cc(C(=O)Nc2sccc2C#N)ccc1Cl,"inconclusive [cytotoxic, single point]",–
BrC(/C=C\c1ccccc1)=N/Nc1nc(N2CCOCC2)nc(N2CCOCC2)n1,"inconclusive [cytotoxic, single point]",–
CN(C)CCNC(=O)/C=N/O,inactive,–
COc1cc(SC)ccc1C(=O)NCC1CCCCC1,inactive,–

SMILES,Potency,"activity, negative = less viability"
CCC(=O)NC(c1cccs1)c1cc(Cl)c2cccnc2c1O (stereo not drawn),"inconclusive [cytotoxic, partial curve, poor fit]",–
Cn1c(=O)c(C(=O)NCCO)c(O)c2ccccc21,"inconclusive [cytotoxic, single point]",–
CCCOc1ccc2ccccc2c1/C=N/n1c(C)nnc1-n1nc(C)cc1C,"inconclusive [cytotoxic, full curve]",–
O=C(Nc1nccs1)c1cc2sccc2n1Cc1ccc(F)cc1,"inconclusive [cytotoxic, partial curve]",–
Cc1cc2nc(-c3ccccc3)c(Cc3ccccc3)n2c(C)c1Br,"inconclusive [cytotoxic, partial curve]",–
O=C(/C=C/c1ccc2c(c1)OCO2)c1ccccn1,active: 25.9 µM,–
C=CCNc1nc(-c2ccccc2)c(C(=O)OCC)cc1C#N,"inconclusive [cytotoxic, single point]",–
CNC(=O)c1sc(-c2cccs2)nc1C,"inconclusive [rising, partial curve]",–
CCSc1nnc(NC(=O)NC(C)(C(F)(F)F)C(F)(F)F)s1,"inconclusive [cytotoxic, single point]",–
CC1(C(=O)Nc2cccc3cccnc23)CCN1Cc1ccccc1OC(F)F (stereo not drawn),"inconclusive [cytotoxic, single point]",–
CC(=O)Nc1ccc(NC(=O)c2cc(-c3cc(C)c(C)cc3O)n[nH]2)cc1,"inconclusive [cytotoxic, single point]",–
CCc1nnc(NC(=O)c2ccc3c(c2)C(=O)N(CC)C3=O)s1,inactive,–
NCC/C=C1/c2ccccc2CSc2ccccc21,active: 14.1 µM,–
Cc1c2cnn(CC(=O)NCCCN3CC(C)CC(C)C3)c(=O)c2c(C)n1Cc1ccccc1Cl (stereo not drawn),"inconclusive [cytotoxic, single point]",–
COc1ccc(C)cc1Nc1nc(-c2c[nH]c3ccccc23)cs1,"inconclusive [cytotoxic, single point]",–
CCOC(=O)CC1CCCCN1C(=O)c1cc(COc2cccc3cnccc23)on1 (stereo not drawn),active: 23.1 µM,–
Cc1ccc(C2CC2c2n[nH]c(=S)n2-c2cccc(C)c2)cc1 (stereo not drawn),inactive,–
CCOc1ccc(N2CC(C(=O)Nc3cc(OCC)c(N4CCOCC4)cc3OCC)CC2=O)cc1 (stereo not drawn),inactive,–
CCN(CC)CCCNC(=O)c1cc(-c2cccc(Cl)c2)on1,"inconclusive [cytotoxic, single point]",–
c1cc2c(cc1C1=NNC(=NC3CC3)SC1)OCCO2,active: 16.4 µM,–
O=C(Cc1ccc(-n2cccc2)cc1)NCc1cccs1,active: 2.31 µM,–
Cc1ccc(/C=N/NC(=O)CNC(=O)c2ccc(S(=O)(=O)N(C)C)cc2)o1,inactive,–
CC(=O)Nc1ccc(SCC(=O)N(C)C2CCS(=O)(=O)C2)cc1 (stereo not drawn),inactive,–

# Reference: PubChem BioAssay AID686970 (National Center for Advancing Translational Sciences (NCATS), 2013)
